# Experimental data published in the supplement of paper PMC8728848.
# The other results are listed elsewhere or left out.
# B1: Dectin-1 CTLD (Mus musculus), Q6QLQ4 (protein)
# chain: MKYHSHIENLDEDGYTQLDFSTQDIHKRPRGSEKGSRAPSSPWRPIAVGLGILCFVVVVVAAVLGALAFWRHNSGRNPEEKDNFLSRNKENHKPTESSLDEKVAPSKASQTTGGFSQSCLPNWIMHGKSCYLFSFSGNSWYGSKRHCSQLGAHLLKIDNSKEFEFIESQTSSHRINAFWIGLSRNQSEGPWFWEDGSAFFPNSFQVRNTVPQESLLHNCVWIHGSEVYNQICNTSSYSICEKEL
# How the values were obtained:
# Assay in all cases: glycan array binding signal (z-score within array); higher = stronger binding
# Settings in all cases: glycan notation: IUPAC condensed, linker removed
# [1] = molecular target: GlcNAc(b1-2)Gal(b1-3)GlcNAc
# Procedure, shortened: (§1)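 From the Consortium for Functional Glycomics database, 3228 arrays were curated, keeping only those whose protein sequence was available. Binding is given as a within-array Z-score averaged across arrays sharing a protein sequence and across linkers. Negative Z-scores can be read as non-binding.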
# [2] = molecular target: GlcNAc(b1-2)Man(a1-3)[GlcNAc(b1-2)Man(a1-6)]Man(b1-4)GlcNAc(b1-4)GlcNAc
# Procedure, shortened: as §1
# [3] = molecular target: GlcNAc(b1-3)Gal
# Procedure, shortened: as §1
# [4] = molecular target: GlcNAc(b1-3)Gal(b1-3)GalNAc
# Procedure, shortened: as §1
# [5] = molecular target: GlcNAc(b1-3)Gal(b1-4)Glc
# Procedure, shortened: as §1
# [6] = molecular target: GlcNAc(b1-3)Gal(b1-4)GlcNAc
# Procedure, shortened: as §1
# [7] = molecular target: GlcNAc(b1-3)Gal(b1-4)GlcNAc(b1-3)Gal(b1-4)GlcNAc
# Procedure, shortened: as §1
# [8] = molecular target: GlcNAc(b1-3)GalNAc
# Procedure, shortened: as §1
# [9] = molecular target: GlcNAc(b1-3)[GlcNAc(b1-4)][GlcNAc(b1-6)]GlcNAc
# Procedure, shortened: as §1
# [10] = molecular target: GlcNAc(b1-3)[GlcNAc(b1-6)]Gal(b1-4)GlcNAc
# Procedure, shortened: as §1
# [11] = molecular target: GlcNAc(b1-3)[GlcNAc(b1-6)]GlcNAc
# Procedure, shortened: as §1
# [12] = molecular target: GlcNAc(b1-4)Gal(b1-4)GlcNAc
# Procedure, shortened: as §1
# [13] = molecular target: GlcNAc(b1-4)GlcNAc(b1-4)GlcNAc
# Procedure, shortened: as §1
# [14] = molecular target: GlcNAc(b1-4)GlcNAc(b1-4)GlcNAc(b1-4)GlcNAc(b1-4)GlcNAc
# Procedure, shortened: as §1
# [15] = molecular target: GlcNAc(b1-4)GlcNAc(b1-4)GlcNAc(b1-4)GlcNAc(b1-4)GlcNAc(b1-4)GlcNAc
# Procedure, shortened: as §1
# [16] = molecular target: GlcNAc(b1-4)[GlcNAc(b1-6)]GalNAc
# Procedure, shortened: as §1
# [17] = molecular target: GlcNAc(b1-6)Gal(b1-4)GlcNAc
# Procedure, shortened: as §1
# [18] = molecular target: GlcNAc(b1-6)GalNAc
# Procedure, shortened: as §1
# [19] = molecular target: Kdn(a2-3)Gal(b1-3)GlcNAc
# Procedure, shortened: as §1
# [20] = molecular target: Kdn(a2-3)Gal(b1-4)GlcNAc
# Procedure, shortened: as §1
# [21] = molecular target: Man(a1-2)Man(a1-2)Man(a1-3)Man
# Procedure, shortened: as §1
# [22] = molecular target: Man(a1-2)Man(a1-2)Man(a1-3)[Man(a1-2)Man(a1-3)[Man(a1-2)Man(a1-6)]Man(a1-6)]Man(b1-4)GlcNAc(b1-4)GlcNAc
# Procedure, shortened: as §1
# [23] = molecular target: Man(a1-2)Man(a1-2)Man(a1-3)[Man(a1-2)Man(a1-6)[Man(a1-3)]Man(a1-6)]Man(b1-4)GlcNAc(b1-4)GlcNAc
# Procedure, shortened: as §1
# [24] = molecular target: Man(a1-2)Man(a1-2)Man(a1-6)[Man(a1-3)]Man
# Procedure, shortened: as §1
# [25] = molecular target: Man(a1-2)Man(a1-3)Man
# Procedure, shortened: as §1
# [26] = molecular target: Man(a1-2)Man(a1-3)[Man(a1-2)Man(a1-6)]Man
# Procedure, shortened: as §1
# [27] = molecular target: Man(a1-2)Man(a1-3)[Man(a1-3)[Man(a1-6)]Man(a1-6)]Man(b1-4)GlcNAc(b1-4)GlcNAc
# Procedure, shortened: as §1
# [28] = molecular target: Man(a1-2)Man(a1-3)[Man(a1-6)]Man(a1-6)[Man(a1-2)Man(a1-3)]Man(b1-4)GlcNAc(b1-4)GlcNAc
# Procedure, shortened: as §1
# [29] = molecular target: Man(a1-3)[Man(a1-6)]Man
# Procedure, shortened: as §1
# [30] = molecular target: Man(a1-3)[Man(a1-6)]Man(a1-6)[Man(a1-3)]Man(b1-4)GlcNAc(b1-4)GlcNAc
# Procedure, shortened: as §1
# [31] = molecular target: Man(a1-3)[Man(a1-6)]Man(b1-4)GlcNAc(b1-4)GlcNAc
# Procedure, shortened: as §1
# [32] = molecular target: Man(b1-4)GlcNAc
# Procedure, shortened: as §1
# [33] = molecular target: Neu5Ac(a2-3)Gal
# Procedure, shortened: as §1
# [34] = molecular target: Neu5Ac(a2-3)Gal(b1-3)GalNAc
# Procedure, shortened: as §1
# [35] = molecular target: Neu5Ac(a2-3)Gal(b1-3)GalNAc(b1-3)Gal(a1-4)Gal(b1-4)Glc
# Procedure, shortened: as §1
# [36] = molecular target: Neu5Ac(a2-3)Gal(b1-3)GalNAc(b1-4)[Neu5Ac(a2-3)]Gal(b1-4)Glc
# Procedure, shortened: as §1
# [37] = molecular target: Neu5Ac(a2-3)Gal(b1-3)GalNAc6S
# Procedure, shortened: as §1
binder,measurement,setting,value
B1,glycan array binding signal (z-score),[1],-0.218
same,glycan array binding signal (z-score),[2],-0.34
same,glycan array binding signal (z-score),[3],-0.245
same,glycan array binding signal (z-score),[4],-0.405
same,glycan array binding signal (z-score),[5],-0.03
same,glycan array binding signal (z-score),[6],0.088
same,glycan array binding signal (z-score),[7],-0.18
same,glycan array binding signal (z-score),[8],0.059
same,glycan array binding signal (z-score),[9],-0.628
same,glycan array binding signal (z-score),[10],0.193
same,glycan array binding signal (z-score),[11],-0.044
same,glycan array binding signal (z-score),[12],-0.306
same,glycan array binding signal (z-score),[13],-0.25
same,glycan array binding signal (z-score),[14],0.938
same,glycan array binding signal (z-score),[15],-0.182
same,glycan array binding signal (z-score),[16],9.99
same,glycan array binding signal (z-score),[17],-0.167
same,glycan array binding signal (z-score),[18],-0.274
same,glycan array binding signal (z-score),[19],-0.044
same,glycan array binding signal (z-score),[20],0.139
same,glycan array binding signal (z-score),[21],-0.431
same,glycan array binding signal (z-score),[22],0.167
same,glycan array binding signal (z-score),[23],0.004
same,glycan array binding signal (z-score),[24],-0.46
same,glycan array binding signal (z-score),[25],0.926
same,glycan array binding signal (z-score),[26],-0.241
same,glycan array binding signal (z-score),[27],0.104
same,glycan array binding signal (z-score),[28],-0.151
same,glycan array binding signal (z-score),[29],-0.209
same,glycan array binding signal (z-score),[30],-0.433
same,glycan array binding signal (z-score),[31],-0.339
same,glycan array binding signal (z-score),[32],-0.259
same,glycan array binding signal (z-score),[33],0.055
same,glycan array binding signal (z-score),[34],-0.225
same,glycan array binding signal (z-score),[35],0.133
same,glycan array binding signal (z-score),[36],0.381
same,glycan array binding signal (z-score),[37],-0.299
